Hit rate of the full screen: of about 310,000 compounds, about 2,200 (0.71%) showed an effect of 50% or more. Effects have a minus sign here. The list shows a part of the results.
biological target: human ether-à-go-go-related gene (hERG) potassium channel (human, UniProt Q12809); assay: primary screen, population patch clamp on CHO cells stably expressing hERG
Sequence (Q12809 whole entry, looked up): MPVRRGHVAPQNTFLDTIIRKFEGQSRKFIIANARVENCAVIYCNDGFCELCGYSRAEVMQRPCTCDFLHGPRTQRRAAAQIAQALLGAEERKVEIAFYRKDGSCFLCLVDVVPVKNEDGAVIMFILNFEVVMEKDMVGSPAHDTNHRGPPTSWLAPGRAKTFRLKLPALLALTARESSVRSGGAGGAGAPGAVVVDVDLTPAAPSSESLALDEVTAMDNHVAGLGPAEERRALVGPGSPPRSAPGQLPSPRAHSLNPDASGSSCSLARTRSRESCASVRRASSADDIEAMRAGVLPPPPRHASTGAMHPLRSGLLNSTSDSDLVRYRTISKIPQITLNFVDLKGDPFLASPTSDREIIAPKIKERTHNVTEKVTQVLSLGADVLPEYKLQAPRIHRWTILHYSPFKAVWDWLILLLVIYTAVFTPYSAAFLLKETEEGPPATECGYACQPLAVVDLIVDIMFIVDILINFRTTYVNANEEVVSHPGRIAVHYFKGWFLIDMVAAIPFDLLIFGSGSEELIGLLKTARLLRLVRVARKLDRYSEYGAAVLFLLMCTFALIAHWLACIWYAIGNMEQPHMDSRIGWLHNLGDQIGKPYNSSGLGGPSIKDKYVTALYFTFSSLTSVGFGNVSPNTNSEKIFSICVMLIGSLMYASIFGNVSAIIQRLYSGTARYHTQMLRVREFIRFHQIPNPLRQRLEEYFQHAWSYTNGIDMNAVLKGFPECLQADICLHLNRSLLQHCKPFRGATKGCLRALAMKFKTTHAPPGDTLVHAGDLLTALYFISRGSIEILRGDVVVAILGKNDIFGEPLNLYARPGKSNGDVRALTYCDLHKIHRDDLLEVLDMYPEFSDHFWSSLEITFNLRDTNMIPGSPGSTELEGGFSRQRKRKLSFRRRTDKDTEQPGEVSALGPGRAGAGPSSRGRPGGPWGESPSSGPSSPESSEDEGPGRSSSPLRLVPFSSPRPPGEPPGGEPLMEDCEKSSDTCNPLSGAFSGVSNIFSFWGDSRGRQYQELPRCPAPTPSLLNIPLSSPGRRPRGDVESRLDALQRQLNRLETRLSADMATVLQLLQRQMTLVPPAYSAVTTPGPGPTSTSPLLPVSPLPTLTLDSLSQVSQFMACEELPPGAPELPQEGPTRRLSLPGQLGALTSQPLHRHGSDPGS

Compound | hERG current change (%, negative = inhibition) at 1uM
COc1ccc(Nc2cc(C)nc3c(C)cccc23)cc1OC | 2.51%
CC(C)OC(=O)C1C2C=CC3(CN(CC4CCCO4)C(=O)C13)O2 (stereo not shown) | 9.21%
CNC(=O)NC(=O)C(C)OC(=O)CCCc1nc2ccccc2s1 (stereo not shown) | 15.6%
Cc1ccc(C=Nc2ccccc2C(=O)Nc2ccccc2)cc1 | 10.3%
CCc1ccc(OCC(=O)NNC(=O)Cc2cccs2)cc1 | 5.25%
Cc1ccc(C(=O)O/N=C/c2ccc3c(c2)OCO3)cc1 | 9.59%
CC(C)n1cnc2cc(NCc3ccccn3)ccc21 | 5.91%
CC(NC(=O)c1cc2sccc2n1C)c1ccc2c(c1)OCCO2 (stereo not shown) | -0.306%
O=C(Nc1ccccn1)NC1CCCCC1 | 7.91%
O=C(NCc1cccnc1)NC1(C(F)(F)F)Oc2ccc(Cl)cc2O1 (stereo not shown) | 17.6%
Cc1occc1C(=O)NNC(=O)Nc1ccc(F)cc1F | 18.7%
CCN1C(=O)/C(=C\N2CCN(c3ccc(F)cc3)CC2)SC1=S | 9.06%
COc1ccc2[nH]c(C(=O)N3CCc4ccccc4C3)c(C)c2c1 | 10.4%
O=C(CC1Nc2ccccc2NC1=O)Nc1ccccc1 (stereo not shown) | -1.16%
COc1cc([N+](=O)[O-])cc2cc(C(=O)NC(C)(C)C)c(=O)oc12 | 0.075%
Cc1ccc2[nH]c3c(c2c1)CCc1cn[nH]c1-3 | 21.9%
Cc1ccc(NC(=O)COC(=O)CCOc2ccccc2C)cc1 | 14.5%
O=C(Cn1c(C(=O)N2CCN(C3CCCCC3)CC2)cc2sccc21)c1ccccc1 | -47.5%
N/C(Cc1cccs1)=N\OC(=O)COc1ccc(Br)cc1 | 8.46%
CN(CC1COc2ccccc2O1)C(=O)c1ccc(Cl)c(S(=O)(=O)N2CCCCCC2)c1 (stereo not shown) | 2.78%
Cc1ccc2c(c1)c1c(n2CC(O)Cn2c(C)nc3ccccc32)CCCC1 (stereo not shown) | 0.779%
NNc1nc2c(Cl)cccc2s1 | 14.1%
CC(=O)c1ccccc1OCCOCCOCCOc1ccccc1C(C)=O | 5.79%

Compound | hERG current change (%, negative = inhibition) at 1uM
N#C/C(=C\Nc1ccccc1SC(F)(F)F)c1nc(-c2ccc(F)cc2)cs1 | 15.5%
Cc1cc(=O)[nH]c2ccc(Cl)cc12 | 3.34%
CCOc1ccccc1NC(=O)c1cccc2ccccc12 | 10.9%
Cc1n[nH]c(=S)n1/N=C/c1ccc(Br)o1 | 10.1%
O=C(NNc1c2ccccc2nc2ccccc12)C(O)c1ccccc1 (stereo not shown) | 9.51%
COc1cccc(N(C(=O)c2ccn[nH]2)C2(C(=O)Nc3c(C)cccc3C)CCCCC2)c1 | 1.35%
COc1ccc(NC(=O)CCCCC(=O)Nc2ccc(OC)cc2)cc1 | 8.55%
c1ccc2c(c1)[nH]c1nc(SCCN3CCOCC3)nnc12 | 5.28%
Cc1cc(C)n2nc(N)c(N=Nc3cccc(Cl)c3)c2n1 | 3.62%
CSCCC(NC(=O)c1ccco1)C(=O)O (stereo not shown) | 2.89%
CCCSP1(=S)NCCCO1 (stereo not shown) | 2.42%
CC1=C(C(=O)OCc2ccccc2)C(c2ccsc2)NC(=O)N1C (stereo not shown) | -6.57%
CCC(C)NCC(O)(c1ccc(Cl)cc1)c1ccc(Cl)cc1 (stereo not shown) | -1.23%
COc1ccc(C(CC(=O)O)NC(=O)c2ccco2)cc1OC (stereo not shown) | 7.24%
CCOC(=O)C1(Cc2ccccc2)CCN(Cc2ccc(COC)o2)CC1 | 13.9%
CN(CC(=O)Nc1ccccc1C(=O)NC1CC1)Cc1ccc(Cl)cc1 | -10.2%
CN1CCN(S(=O)(=O)c2ccc(-c3noc(C4CCN(S(C)(=O)=O)CC4)n3)cc2)CC1 | 1.58%
Cc1ccc(S(=O)(=O)N2CCN(C(=O)c3nn(C(C)C)c(=O)c4ccccc34)CC2)cc1C | 5.96%
CCC(Oc1ccccc1)C(=O)N1CCN(CC)CC1 (stereo not shown) | 11.9%
COc1ccc(-c2ccc3oc(-c4ccc(OC)cc4)c(C#CC4(O)CCCCC4)c3c2)cc1 | 15.2%
COc1ccc(/C=N/NC(=O)c2ccc(N3CCCC3=O)cc2)cc1 | 8.41%
CC1(C)Cc2cccc(OCC(=O)OCC(=O)Nc3ccccc3)c2O1 | 4.55%
COc1ccc(CCN(C)c2ccc(C(N)=O)cc2[N+](=O)[O-])cc1OC | 9.04%

Compound | hERG current change (%, negative = inhibition) at 1uM
CCCCNc1nc(N)ncc1[N+](=O)[O-] | 7.62%
COc1cc(-c2nnc(SCC(=O)N3CCOCC3)o2)cc(OC)c1OC | 3.58%
Nc1nc(CN2CCc3ccccc3C2)nc(Nc2ccccc2)n1 | -10.8%
O=C(Nc1nc2c(F)cc(F)cc2s1)c1ccccn1 | 1.31%
Cn1c(=O)oc2cc(S(=O)(=O)NCCC(=O)NC3CCCc4ccccc43)ccc21 (stereo not shown) | 12.7%
C=C(C)C(=O)Nc1nnc(-c2cccs2)s1 | 17.6%
Cc1ccc(NC(=O)CSc2ccc(-c3cccnc3)nn2)c(C)c1 | 1.37%
COC(=O)c1ccc(NC(=O)COC(=O)CSc2nc(C)cc(C)n2)cc1 | 11.8%
Cc1cc2c(cc1C)C(c1ccccc1OC(C)C)CC(=O)N2 (stereo not shown) | 8.95%
COc1ccccc1C(=O)N/C(=C\c1ccccc1)C(=O)NCc1ccco1 | 2.29%
Cc1cc(C)n(Cc2cc(C(=O)O)c3ccccc3n2)n1 | 4.44%
Cc1ccc(S(=O)(=O)N2CCN(CC(=O)N3CCOCC3)CC2)cc1 | 14%
COc1cccc(NC(=S)N(CCc2nc3cc(C)c(C)cc3[nH]2)Cc2cccnc2)c1 | 7.28%
CN(C(=O)CSc1nncn1C)C1CCCN(Cc2ccccc2F)C1 (stereo not shown) | -0.252%
CCOc1ccc(C2CC(c3c(O)n(C)c(=O)n(C)c3=O)=NN2)cc1 (stereo not shown) | 6.28%
CC1=C(c2ccc(C(C)C)cc2)S(=O)(=O)N=C1N1CCN(C(=O)c2ccco2)CC1 | -0.255%
Cc1c(NC(=O)c2cc3nc(-c4ccccc4)cc(C)n3n2)c(=O)n(-c2ccccc2)n1C | 0.844%
Cc1cccn2c(=O)c3cc(C(=O)NCc4ccco4)c(=N)n(CCc4ccccc4)c3nc12 | -82.2%
COC(=O)c1ccc(OC(=O)c2ccc(OC)cc2)c(OC)c1 | 20.8%
COc1cccc(-c2nnc(SCC(=O)N3CCOCC3)o2)c1 | 6.14%
Cc1cc(Nc2ccccc2)n(-c2nc3ccccc3[nH]2)n1 | 13.5%
Cc1cccc(C)c1NS(=O)(=O)c1ccc(OCCNS(C)(=O)=O)cc1 | 7.78%
CCCCC(=O)NC(=S)NNC(=O)c1ccc(OC)cc1 | 10.5%

Compound | hERG current change (%, negative = inhibition) at 1uM
COc1ccc(N/C(C)=C2/C(=O)C(=O)N(CCO)C2c2ccc([N+](=O)[O-])cc2)cc1 (stereo not shown) | -7.62%
Cc1ccc2[nH]c3c(c2c1)CCC3=O | 0.963%
COc1cc(/C=N\NC(=O)C2CC3C=CC2C3)ccc1O (stereo not shown) | 9.05%
COc1cc(OC)cc(C(C(=O)NCc2ccccc2)N(Cc2ccco2)C(=O)c2ccno2)c1 (stereo not shown) | 7.21%
CCOC(=O)N1CCC(N2CCN(c3cc(C)ccc3C)CC2)CC1 | -32.2%
CCCCc1nnc(NC(=O)CN2C(=O)C3CCCCC3C2=O)s1 (stereo not shown) | 11.8%
CCN(C(=O)COC(=O)COc1ccccc1Cl)c1c(N)n(Cc2ccccc2)c(=O)[nH]c1=O | 9.53%
CCN(CC)C(=O)CN1C(=O)C2(OCC(C)(C)CO2)c2ccccc21 | 9.97%
COC(=O)CC1=NN(c2nc(C)cc(C)n2)C(=O)C1 | 10.2%
COc1ccccc1NC(=O)c1sc2nc(-c3ccco3)ccc2c1N | 8.84%
Cc1nn(-c2nnc(NCc3ccccc3)nn2)c(C)c1Br | 6.29%
Cn1c(=O)[nH]c2nc[nH]c2c1=O | 15.6%
Cc1cc(C)n(C(C)CC(=O)Nc2ccc(-c3ccno3)cc2)n1 (stereo not shown) | 0.72%
Cc1ccc2c(c1)N(CCCC(=O)Nc1cccc(C(F)(F)F)c1)C(=O)CO2 | 15.5%
CCOC(=O)c1c(NC(=O)C2c3ccccc3Oc3ccccc32)sc(C(C)=O)c1C | 20.4%
Cc1cc(C(F)F)n2ncc(C(=O)N3CCc4ccccc4C3)c2n1 | -7.82%
O=C1CCC(=O)N1c1ccc(S(=O)(=O)Nc2cccc([N+](=O)[O-])c2)cc1 | 14%
Fc1ccc(Cn2cc(C(=S)N3CCOCC3)c3ccccc32)cc1 | 11.5%
Cc1ccc(C(C(=O)NC2CCCCC2)N(C(=O)CCCC(=O)Nc2ccccn2)c2ccc3c(c2)OCCO3)cc1 (stereo not shown) | -2.7%
COC(=O)/C(=C\Nc1ccccc1)NC(=O)c1ccc(Cl)cc1Cl | 5.02%
O=C(CN1C(=O)NC2(CCCCC2)C1=O)NCC(=O)Nc1ccc(F)c(F)c1 | 4.14%
Cc1ccc(N2C(=O)NC(=O)/C(=C\c3cc(C)n(-c4cc(C(=O)O)cc(C(=O)O)c4)c3C)C2=O)cc1 | 11%
